From PMC3727929 (Molecular Biology of the Cell, 2013)

Molecular target: the molecule itself
Assay: SEC-MALS

B1: Dyn2 (S. cerevisiae dynein light chain), wild type, full length (natural protein)
chain: not shown
Q: B1 was tested. Which “stoichiometry N” value did it give?
A: Its value is 2.
